The values that follow come from publication PMC10668032.

The list shows a part of the results. At the low end of the ranking the order means little.

The experiment addresses SIX1-Q177R homeodomain (UniProt Q15475). The experiment is described as follows: universal protein binding microarray. To be noted: Universal all-10-mer PBM (8x60K, AMADID 030236), 300 nM GST-tagged protein, Alexa Fluor 488 anti-GST; buffer, salt, pH and temperature not stated; high values mean tight binding; most listed sequences are background and not binding sites; double strand, one strand shown.
Take ATAATAGA: the binding signal was -0.172 E-score.

Turning to AAGGGATA, the binding signal came to 0.0608 E-score.

Turning to CAGCGTAC, the binding signal worked out at 0.0506 E-score.

On to CTTTCGCA, for which the binding signal is -0.198 E-score.

Take AGCTATGC: the binding signal is -0.22 E-score.

Consider AGGACGGA, for which the binding signal was -0.137 E-score.

On to CTGAGTAC, for which the binding signal turned out to be 0.0662 E-score.

Take ATTTCAAC: the binding signal is -0.134 E-score.

With CGGGATCC, the binding signal was 0.209 E-score.

ACTTGATC: the binding signal is -0.0158 E-score.

On to AGGTTTTG, for which the binding signal was -0.187 E-score.

Regarding CACACTGC, the binding signal was 0.258 E-score.

Take GTGATAAC: the binding signal was found to be 0.132 E-score.

Consider CGCTCCAC, for which the binding signal is -0.0875 E-score.

Take TAACTCAA: the binding signal was -0.227 E-score.

For CAGGGGGA, the binding signal worked out at 0.00041 E-score.

Take AATTATCG: the binding signal was -0.174 E-score.

With TACTGAAA, the binding signal was -0.177 E-score.

In the case of CGAATTGC, the binding signal is -0.14 E-score.

GAGTCCAA: the binding signal amounted to 0.0702 E-score.

As to CCTAATAA, the binding signal is -0.116 E-score.

For AAACAATG, the binding signal was -0.178 E-score.

As to ACAGAAAT, the binding signal was -0.0883 E-score.

Take GTTTTGAA: the binding signal is -0.092 E-score.

As to GAAGCAGC, the binding signal is -0.114 E-score.

Regarding ACATGACC, the binding signal was -0.0485 E-score.

Take AATCTATG: the binding signal is -0.109 E-score.

CCTATAGA: the binding signal is -0.054 E-score.

For the sequence CATAAGAA, the binding signal is -0.0532 E-score.

For ACGCGAAT, the binding signal was found to be 0.0847 E-score.

For CAGTACCA, the binding signal was -0.0401 E-score.

Take CCCGGGGC: the binding signal turned out to be 0.0865 E-score.

In the case of CCAACTGA, the binding signal is 0.0757 E-score.

As to ACGTCGAC, the binding signal was -0.136 E-score.

As to ACGGCATG, the binding signal came out at 0.00626 E-score.

As to GCCGGCAA, the binding signal was -0.0815 E-score.

GATCATCA: the binding signal was -0.0853 E-score.

As for AGTTGTCA, the binding signal is -0.0878 E-score.

For the sequence AATATAGA, the binding signal is -0.0119 E-score.

In the case of AACGAGTG, the binding signal was 0.189 E-score.

Regarding ATATCCCA, the binding signal was found to be 0.013 E-score.

For the sequence GATTGAAC, the binding signal came out at 0.162 E-score.

As to CATTCCCA, the binding signal is -0.115 E-score.

Regarding AGCCGGAA, the binding signal was -0.0552 E-score.

CGCAAAAG: the binding signal was -0.195 E-score.

As for CGCAAGAG, the binding signal is -0.194 E-score.

For CGCTTTGC, the binding signal is -0.155 E-score.

Regarding AACATTCT, the binding signal was -0.287 E-score.

For TACCTCAA, the binding signal is -0.0693 E-score.

Take CTGGCCTC: the binding signal was -0.259 E-score.

With GAGGCTTA, the binding signal was -0.137 E-score.

For the sequence CGCGAGGA, the binding signal is -0.0565 E-score.

Regarding CAAGCGGG, the binding signal turned out to be 0.0523 E-score.

With AACTCACT, the binding signal was -0.077 E-score.

On to ATACTTCC, for which the binding signal was -0.0553 E-score.

On to AGATACTA, for which the binding signal was -0.0723 E-score.

Take ACGTGGAT: the binding signal was -0.0492 E-score.

On to GTAGAAGA, for which the binding signal was 0.102 E-score.

As for AAAAACCC, the binding signal is 0.0477 E-score.

Turning to CAACCGCG, the binding signal worked out at 0.0971 E-score.

CTACCATC: the binding signal is -0.118 E-score.

Take GACGTAAC: the binding signal was -0.0265 E-score.

In the case of ATGACTCC, the binding signal turned out to be 0.273 E-score.

For ATGCAAGC, the binding signal was -0.145 E-score.

Consider ATCTTATC, for which the binding signal is -0.108 E-score.

For the sequence GCAGTGAC, the binding signal came to 0.0089 E-score.

In the case of ACAAAAAC, the binding signal was -0.0424 E-score.

As for CGCCTGTA, the binding signal is -0.163 E-score.

In the case of GTTTCCCA, the binding signal amounted to 0.0185 E-score.

Consider TAAACGTA, for which the binding signal was -0.257 E-score.

For ACTGTGCC, the binding signal is -0.171 E-score.

Take ATGTGCAG: the binding signal was -0.155 E-score.

For AGGTTCCA, the binding signal was -0.0194 E-score.

As to ACGAGCAG, the binding signal came out at 0.0391 E-score.

CGGCAAAG: the binding signal was -0.143 E-score.

With GCACGCCC, the binding signal is -0.0238 E-score.

In the case of ACGAGCGA, the binding signal was -0.0289 E-score.

Turning to GCGACAGA, the binding signal is -0.124 E-score.

Take ATTCGTAA: the binding signal was -0.159 E-score.

In the case of ACCTAGGT, the binding signal is 0.157 E-score.

On to AATACGAC, for which the binding signal was -0.0222 E-score.

For the sequence AACGCCGT, the binding signal amounted to 0.159 E-score.

For the sequence ACTGATCA, the binding signal was -0.066 E-score.

On to GCTAATCA, for which the binding signal was -0.0485 E-score.

Regarding TATTTTCA, the binding signal was -0.0239 E-score.

Turning to CCATAACC, the binding signal is -0.0965 E-score.

Turning to ATGTGCGG, the binding signal was 0.0998 E-score.

Turning to GTAGTGAA, the binding signal is -0.0315 E-score.

As to ATCAGCAA, the binding signal is -0.185 E-score.

As for ACTGTGAT, the binding signal was -0.0176 E-score.

In the case of ACACATCT, the binding signal was 0.144 E-score.

Consider AGACGCAT, for which the binding signal was -0.143 E-score.

GGAGAATA: the binding signal came out at 0.193 E-score.

For the sequence AATAAGAC, the binding signal is -0.142 E-score.

ATATCGTA: the binding signal is -0.126 E-score.

Regarding ACGATAGC, the binding signal is -0.159 E-score.

For the sequence GCGGGGAC, the binding signal was found to be 0.0448 E-score.

As to CGTGAGCC, the binding signal was -0.188 E-score.

With AATCGAGG, the binding signal is -0.0638 E-score.

Turning to AAGTTTCT, the binding signal is -0.19 E-score.

As for AGCCGTGA, the binding signal was -0.158 E-score.

On to AGTTCGTC, for which the binding signal is -0.0906 E-score.

Turning to CACAAGCG, the binding signal was 0.0318 E-score.

For AAACTTTC, the binding signal is -0.304 E-score.

For the sequence ACACATAA, the binding signal amounted to 0.18 E-score.

Take GACGATGA: the binding signal was -0.23 E-score.

With CATCATGC, the binding signal was -0.114 E-score.

Turning to CCTTAGGA, the binding signal is -0.0121 E-score.

Consider CACCCGAA, for which the binding signal worked out at 0.276 E-score.

Turning to GCAATTAC, the binding signal was -0.0877 E-score.
